Reference: PubChem BioAssay AID1347165 (National Center for Advancing Translational Sciences (NCATS), 2019)
Hit rate of the full screen: of about 220,000 compounds, about 5,700 (2.6%) were called active. Inconclusive means that the source gave no clear call. Such entries were picked first, then a sample of the others. Calls follow the shape of the dose curve; as a rule, active = well fitted inhibition curve with a large enough effect; inconclusive = small, poorly fitted or top-dose-only effect; inactive = no such curve, though single readings can be large or run the other way. Where the call is inconclusive, the potency comes from a doubtful curve fit.

target: Lysine-specific demethylase 5B (Homo sapiens) (UniProt Q9UGL1); experiment: Primary screen for KDM5B Histone Demethylases FDH-coupled qHTS; conditions: FDH-coupled NADH fluorescence (FDH is formaldehyde dehydrogenase); activity change, negative = inhibition: at 57.7 µM (top of the series) unless noted; also: nearly all actives have a fitted effect of over 70% in size; as to activity change, negative = inhibition: 0% is about no effect
Sequence of UniProt Q9UGL1 (Q9UGL1 whole entry, looked up): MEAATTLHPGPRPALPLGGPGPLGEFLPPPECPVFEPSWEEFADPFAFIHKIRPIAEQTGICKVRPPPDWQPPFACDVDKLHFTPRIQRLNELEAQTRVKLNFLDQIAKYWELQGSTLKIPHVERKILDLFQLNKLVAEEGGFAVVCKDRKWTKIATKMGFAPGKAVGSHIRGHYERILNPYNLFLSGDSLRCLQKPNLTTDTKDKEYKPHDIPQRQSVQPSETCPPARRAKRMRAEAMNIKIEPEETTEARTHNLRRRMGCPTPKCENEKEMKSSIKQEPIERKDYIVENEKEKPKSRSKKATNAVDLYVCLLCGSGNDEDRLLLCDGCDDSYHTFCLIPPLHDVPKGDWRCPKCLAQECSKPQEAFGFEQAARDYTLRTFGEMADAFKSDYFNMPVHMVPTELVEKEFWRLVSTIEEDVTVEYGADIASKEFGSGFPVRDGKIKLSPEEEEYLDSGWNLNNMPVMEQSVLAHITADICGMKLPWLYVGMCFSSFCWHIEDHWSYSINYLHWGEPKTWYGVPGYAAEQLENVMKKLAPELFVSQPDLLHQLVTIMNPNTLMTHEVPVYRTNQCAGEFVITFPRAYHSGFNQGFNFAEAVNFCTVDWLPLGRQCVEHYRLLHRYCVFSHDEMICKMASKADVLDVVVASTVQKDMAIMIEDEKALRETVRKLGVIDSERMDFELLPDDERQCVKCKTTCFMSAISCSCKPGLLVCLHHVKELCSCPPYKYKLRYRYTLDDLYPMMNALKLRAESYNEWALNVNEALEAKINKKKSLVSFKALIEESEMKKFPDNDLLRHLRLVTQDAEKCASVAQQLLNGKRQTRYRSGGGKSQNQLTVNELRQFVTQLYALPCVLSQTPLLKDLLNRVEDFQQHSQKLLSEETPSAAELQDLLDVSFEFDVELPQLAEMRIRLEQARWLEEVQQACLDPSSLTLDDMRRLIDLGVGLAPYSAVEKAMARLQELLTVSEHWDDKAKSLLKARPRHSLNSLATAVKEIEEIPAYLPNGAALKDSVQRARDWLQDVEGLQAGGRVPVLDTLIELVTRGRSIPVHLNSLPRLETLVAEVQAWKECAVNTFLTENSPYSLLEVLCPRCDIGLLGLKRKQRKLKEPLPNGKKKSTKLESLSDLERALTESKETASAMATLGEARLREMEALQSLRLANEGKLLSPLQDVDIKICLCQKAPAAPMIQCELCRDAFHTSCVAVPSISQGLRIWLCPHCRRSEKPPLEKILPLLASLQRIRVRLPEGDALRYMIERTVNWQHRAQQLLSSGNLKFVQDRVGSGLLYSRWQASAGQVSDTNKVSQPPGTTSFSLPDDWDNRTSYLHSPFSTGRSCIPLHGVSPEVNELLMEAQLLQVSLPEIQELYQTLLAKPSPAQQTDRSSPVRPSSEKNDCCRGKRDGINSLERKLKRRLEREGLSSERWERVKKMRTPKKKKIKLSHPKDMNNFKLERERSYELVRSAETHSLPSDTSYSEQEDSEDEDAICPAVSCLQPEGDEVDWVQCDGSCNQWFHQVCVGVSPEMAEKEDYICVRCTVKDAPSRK
Method in brief: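 qHTS format, multiple compound concentrations. Buffer 50 mM HEPES pH 7.5/0.01% Tween-20; 200 nM KDM5BΔAP final; 10 min compound preincubation; substrate-mix levels 12.5 µM peptide, 25 µM α-KG, 0.25 mM NAD⁺; 30 min RT; ΔRFU.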
Potency is read from the fitted curve at half-maximal effect; tags tell the direction and shape of the fitted curve.

| SMILES | Potency | activity change, negative = inhibition |
| --- | --- | --- |
| COc1ccc(-c2ccnc3nc(C4CCCO4)nn23)c(F)c1 (stereo unspecified) | active: 25.1 µM | – |
| COc1ccc(-c2cc(=O)c3cc(OC(=O)C(C)(C)C)ccc3o2)cc1 | inconclusive: 2 µM [inhibitor, full curve, poor fit] | – |
| Cc1cn2nnc(C(=O)NCc3ccncc3)c2c(=O)[nH]1 | inconclusive: 17.8 µM [inhibitor, partial curve, poor fit] | – |
| COc1ccc(/C=C/c2nc3cc(C)ccc3s2)cc1OC | inconclusive: 2.51 µM [inhibitor, full curve, poor fit] | – |
| COc1ccc(C)cc1NC(=O)N1CCC2(CCNC(=O)CC2)CC1 | – | inactive: 17.4% |
| O=C(c1n[nH]c2c1CCCCCC2)N1CCc2nc3cc(-c4ccccc4)[nH]n3c(=O)c2C1 | inconclusive: 31.6 µM [inhibitor, single point] | – |
| CCCN(CC1CC1)C(=O)CCC1CCCN(S(=O)(=O)c2ccc(C)cc2)C1 (stereo unspecified) | inconclusive: 17.8 µM [inhibitor, single point] | – |
| Cc1ccc(C)c(C(=O)N2CCC3(CC2)N=C(c2ccc(Cl)cc2)NO3)c1 | inconclusive: 14.1 µM [inhibitor, partial curve] | – |
| COc1ccc(-c2cc(C(=O)NCC3CC3)c3c(C4CCNC4)noc3n2)cc1 (stereo unspecified) | active: 79.4 µM | – |
| O=C(c1ccccc1F)N1CCC(N2CC3CC(C2)[C@H]2CCCC(=O)N2C3)CC1 (stereo partly specified) | inconclusive: 17.8 µM [inhibitor, partial curve] | – |
| CCCn1nc(SCC(=O)OCC)n2c(=O)c3c(nc12)-c1ccccc1CC3(C)CC (stereo unspecified) | inconclusive: 22.4 µM [inhibitor, partial curve, poor fit] | – |
| CC(=O)Nc1ccc(-c2csc(Nc3ccc(O)c(C(=O)O)c3)n2)cc1 | inconclusive: 28.2 µM [inhibitor, partial curve, poor fit] | – |
| CC1(C)CC(n2c(NCCO)nc3c(c2=O)C2(CCCC2)Cc2ccccc2-3)CCO1 (stereo unspecified) | inconclusive: 22.4 µM [inhibitor, partial curve, poor fit] | – |
| Oc1c(C=Nc2ccc(F)c(Cl)c2)ccc2ccccc12 | – | inactive: 11.3% |
| COc1cccc(CN2Cc3nc(Nc4cccc(F)c4)ccc3OCC2=O)c1 | active: 28.2 µM | – |
| O=C(c1ccncc1)N1CCCCC1c1nc(CCOc2ccc(F)cc2)no1 (stereo unspecified) | – | inactive: -9.99% |
| CCCn1c(=O)c(C(=O)NNC(=O)c2cccc([N+](=O)[O-])c2)c(O)c2ccccc21 | inconclusive: 28.2 µM [inhibitor, partial curve, poor fit] | – |
| CCc1noc(-c2ccn3c(CNC(=O)c4cccc5[nH]ccc45)nnc3c2)n1 | inconclusive: 28.2 µM [inhibitor, partial curve, poor fit] | – |
| COC(=O)[C@@H]1Cc2ncn(Cc3ccc(OC)cc3)c2CN1CCCc1ccccc1 | inconclusive: 35.5 µM [inhibitor, single point] | – |
| Cc1nc(-c2c3n(c(=O)n(CC(=O)NCc4ccc5c(c4)OCO5)c2=O)CCCC3)no1 | – | inactive: 13.6% |
| O=S(=O)(N1CCCC1)N1CCOC(Cc2cccc(C(F)(F)F)c2)C1 (stereo unspecified) | inconclusive: 22.4 µM [inhibitor, single point] | – |
| Cc1cn2nc(C(=O)NCc3ccccc3C(F)(F)F)cc2c(N2CCCC2)n1 | active: 14.1 µM | – |
| O=c1c2nc(NCc3ccccc3)ccc2ncn1Cc1ccccn1 | – | inactive: -3050% [at 86.2 µM] |
| O=C(NC1CCc2nnc(C3CC3)n2CC1)c1ccc2ccccc2n1 (stereo unspecified) | inconclusive: 31.6 µM [inhibitor, partial curve, poor fit] | – |

| SMILES | Potency | activity change, negative = inhibition |
| --- | --- | --- |
| CSc1ccc(Cl)c(C(=O)NCCC2=CCCCC2)c1 | – | inactive: 11.2% |
| Nc1nccnc1C(=O)NCc1cccc(Cl)c1 | inconclusive: 22.4 µM [inhibitor, partial curve, poor fit] | – |
| COc1ccc(-c2cc3c(=O)n(CCNC(=O)c4ccsc4)ccn3n2)cc1 | active: 22.4 µM | – |
| O=C1CCC(C(=O)N2C[C@@H](COCC3CC3)[C@H](c3ccccn3)C2)=NN1 | – | inactive: -8.65% |
| CCCN1CCN(C(=O)c2cc3c(s2)CCN(C(=O)c2ccc(F)cc2)C3)CC1 | – | inactive: -21.1% |
| COc1cc(N2CC(C(=O)O)CC2=O)cc(OC)c1OC (stereo unspecified) | – | inactive: -5.56% |
| COc1ccccc1N1CCN(c2ncc3c(n2)CCCC3=O)CC1 | – | inactive: -5.06% |
| COc1ccc(CC(=O)N2CC[C@@H](CC(=O)O)[C@@H](CCN3CCC(C(N)=O)CC3)C2)cc1 | – | inactive: -23.1% |
| CCCN1C(SCC(=O)Nc2ccc(CC)cc2)=NS(=O)(=O)c2ccccc21 | – | inactive: 12.3% |
| O=C(Nc1cccc2ccccc12)O[C@@H]1CO[C@H]2[C@@H]1OC[C@@H]2n1nnnc1SC1CCCC1 | inconclusive: 35.5 µM [inhibitor, single point] | – |
| Cc1ccc(-c2nc(C)c(CCNS(=O)(=O)c3ccccc3F)s2)cc1 | inconclusive: 17.8 µM [inhibitor, partial curve, poor fit] | – |
| COc1ccc(Nc2nc(N3CCN(C(=O)c4ccco4)CC3)nc3c2cnn3C)cc1 | – | inactive: 1.34% |
| Cc1nnc(NC(=O)NCC(C)(C)N2CCCC(C)C2)s1 (stereo unspecified) | – | inactive: 10.9% |
| COC(=O)c1cc2n(n1)CCN(C(=O)c1cc(CC(C)C)[nH]c(=O)n1)C2 | inconclusive: 15.8 µM [inhibitor, partial curve, poor fit] | – |
| COc1ccc(C(=O)Nc2ccc3nc(SCC(=O)N4CCCc5ccccc54)sc3c2)cc1 | inconclusive: 1.26 µM [inhibitor, full curve, poor fit] | – |
| COc1ccccc1COCC(O)CN1CCCCC1CO (stereo unspecified) | inconclusive: 22.4 µM [inhibitor, single point] | – |
| CCN(CC)C(=O)c1sc2c(c1C)c(=O)n(-c1ccc(Cl)c(Cl)c1)c(=O)n2Cc1cc(=O)n2c(C)cccc2n1 | – | inconclusive: -37.7% [inhibitor] |
| CCOC(=O)c1ccccc1NC(=O)Nc1cccc(Cl)c1 | inconclusive: 39.8 µM [inhibitor, single point] | – |
| Cc1cccc(C)c1NC(=O)C(=O)c1c(C)[nH]c2ccccc12 | – | inactive: 8.15% |
| N#Cc1cccc(NC(=O)CCC(=O)c2ccc3c(c2)OCCCO3)c1 | – | inactive: 12.9% |
| CC(Oc1ccc2ccc(=O)oc2c1)C(=O)NC1CC(C)(C)NC(C)(C)C1 (stereo unspecified) | inconclusive: 25.1 µM [inhibitor, partial curve, poor fit] | – |
| NC(=O)[C@H](CCC(=O)O)NC(=O)C1=C[C@@H](NC(=O)CC2(CC(=O)O)CCCC2)[C@@H](O)[C@H](O)C1 | – | inactive: -12.5% |
| O=C(c1nc(-c2cccc(C(F)(F)F)c2)c2ccccn12)N1CCN(c2ncccn2)CC1 | active: 25.1 µM | – |
| CC(C)CCN1CCNC(=O)C1CC(=O)N(Cc1cnn(C)c1)C1CC1 (stereo unspecified) | active: 15.8 µM | – |

| SMILES | Potency | activity change, negative = inhibition |
| --- | --- | --- |
| Cc1ccc(NC(=O)c2ccc(C3Nc4cc(C(F)(F)F)ccc4S(=O)(=O)N3)cc2)cc1C (stereo unspecified) | inconclusive: 4.47 µM [inhibitor, full curve, poor fit] | – |
| O=C(CSC1=Nc2ccccc2C2=NC(Cc3ccccc3)C(=O)N12)Nc1ccccc1F (stereo unspecified) | inconclusive: 31.6 µM [inhibitor, partial curve, poor fit] | – |
| Oc1ccc(-c2nc(C3CC3)nc3c2CN(Cc2cncs2)CC3)cc1 | inconclusive: 22.4 µM [inhibitor, partial curve, poor fit] | – |
| O=C(NC1CCCC1)C1CCc2ncc(-c3ccc(F)cc3)n2C1 (stereo unspecified) | – | inactive: 0.187% |
| CCc1ccc(-n2nc(C)c3c(C(=O)Nc4cc(OC)cc(OC)c4)cc(C)nc32)cc1 | inconclusive: 35.5 µM [inhibitor, partial curve, poor fit] | – |
| CC(C)CNC(=O)Cc1c[nH]c2ncc(-c3cnn(C)c3)cc12 | active: 39.8 µM | – |
| O=c1cc(N2CCOCC2)oc2c(-c3cncnc3)nccc12 | active: 25.1 µM | – |
| COc1ccc(N(C(=O)c2snc(C(N)=O)c2N)C(C(=O)NCc2ccccc2)c2ccc(F)cc2)c(OC)c1 (stereo unspecified) | inconclusive: 25.1 µM [inhibitor, partial curve, poor fit] | – |
| Cc1nc(-c2ccc(F)cc2)n(CC(=O)Nc2ccc3c(c2)OCO3)c(=O)c1CCO | – | inactive: 12.9% |
| O=C(OCc1ccc(Cl)cc1Cl)C1CCC1 | – | inactive: 4.28% |
| Cc1cc(C(F)F)nn1Cc1nc2c3c4c(sc3ncn2n1)CCCC4 | – | inactive: -4.05% |
| COc1ccc2[nH]cc(CCNC(=O)C3(Cc4ccccc4)CCCCC(=O)N3)c2c1 (stereo unspecified) | inconclusive: 35.5 µM [inhibitor, single point] | – |
| COC(=O)c1ccc(/C=C/C(=O)c2ccccc2)o1 | inconclusive: 31.6 µM [inhibitor, partial curve, poor fit] | – |
| CCCCCCCOc1cccc(N)c1 | inconclusive: 35.5 µM [inhibitor, single point] | – |
| Cn1c(=O)c2c(nc(N3CCCC3)n2Cc2cccc(Br)c2)n(C)c1=O | inconclusive: 2.82 µM [inhibitor, full curve, poor fit] | – |
| COc1cc2cc(CN3CCC[C@@H]3CO)c(-c3cccc(Cl)c3)nc2cc1OC | active: 25.1 µM | – |
| Cc1cnc(NC(=O)CCc2ncc(-c3ccc(F)cc3)o2)s1 | – | inactive: 12.9% |
| Cc1ccc(CN(C)C(=O)c2n[nH]c(=O)c3ccccc23)o1 | – | inactive: 0.386% |
| O=c1cc(O)c2sc3nc(-c4cccnc4)cc(C(F)(F)F)c3c2[nH]1 | inconclusive: 39.8 µM [inhibitor, single point] | – |
| O=C(Cn1ccccc1=O)Nc1ccc(Br)cc1Br | – | inactive: -2.74% |
| COc1ccc(OC)c(C2=NOC(C(=O)O)C2)c1 (stereo unspecified) | active: 28.2 µM | – |
| CCn1nc(C(=O)OCC(=O)N(C)c2ccccc2)c2ccccc2c1=O | – | inactive: 16.8% |
| COc1cc2c(-c3ccccc3)c(C)oc2cc1/C=N/NC(N)=S | inconclusive: 39.8 µM [inhibitor, single point] | – |
